# Data reported in ChEMBL document CHEMBL1201862, “PubChem BioAssay data set” (2004).
#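 Values below derive from 48-hour exposures of cells grown in 96-well plates, with endpoints linearly interpolated between the two concentrations bracketing the appropriate inhibition level. Here, GI50 denotes the concentration required for 50% inhibition of growth.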 The source made the active and inactive calls. No stated cut-off is given here; in the data, active = GI50 up to about 1.1 µM and inactive = higher.
# System: NCI-H322M
# Experiment: NCI-60 cell line screen, 48 h
row,Structure (SMILES),GI50
1,C=CCO/N=C/c1cc(/N=C(/S)c2ccoc2C)ccc1Cl,inactive: 14.9 µM
2,CC1OC(OC2C(O)C(O)C(O)C(O)C2O)C(N)CC1NC(=N)C(=O)O (stereo unspecified),inactive: > 100 µM
3,CC(C)(C)c1ccc(O)c(CN(Cc2c(O)ccc3ccccc23)C2CCCCC2)c1,inactive: 18.2 µM
4,O=C(Cn1c(C(=O)c2ccccc2)nc2ccccc21)c1ccccc1,inactive: > 100 µM
5,O=C1C(CO)=C(CO)C(=O)c2c(O)ccc(O)c21,inactive: 1.62 µM
6,COC(=O)c1c(C)[n+]([O-])c2cc(Cl)c(Cl)cc2[n+]1[O-],inactive: 20.7 µM
7,CC(C)c1nc2c(Cl)c3ncccc3cc2[nH]c1=O,inactive: > 100 µM
8,[O-][S+]1c2ccccc2N=C(c2ccc3ccccc3c2)CC1C1=CC=CCC1 (stereo unspecified),inactive: 23.2 µM
9,OCCN1CCN2C=C(C3CCCC4N(CCO)CCN34)CCC21 (stereo unspecified),inactive: > 100 µM
10,FC(F)(F)c1cccc(C2SCc3nc4ccccc4n32)c1 (stereo unspecified),inactive: > 100 µM
11,O=C(O)C12CCC(CC1=O)C2 (stereo unspecified),inactive: > 100 µM
12,C[C@H]1S[C@@H](c2ccc(Cl)cc2Cl)N(NC(=O)c2ccncc2)C1=O,inactive: > 100 µM
13,OCC1OC(O[C@H]2CN3[C@H](O)[C@@H](O)[C@H](O)[C@H]3C2O)C(O)C(O)C1O (stereo partly specified),inactive: > 100 µM
14,COC(=O)c1cc(C)ccc1C1CN=NC12Cc1c(C)cc(C)cc1C2=O (stereo unspecified),inactive: 33 µM
15,O=C1OC(c2ccccc2Br)=N/C1=C/c1ccccc1,inactive: > 100 µM
16,OCC1CC2C=CCC(C2)C1 (stereo unspecified),inactive: > 100 µM
17,O=C1CSC(c2ccccc2O)N1c1nc2cc3sc(N4C(=O)CSC4c4ccccc4O)nc3cc2s1 (stereo unspecified),inactive: > 88.3 µM
18,CC(NC(=O)/C(=C/c1ccccc1O)NC(=O)c1ccccc1)C(=O)O (stereo unspecified),inactive: 55.7 µM
19,Nc1cc2c3c(cccc3c1)C(=O)N(CCN1CCN(CCN3C(=O)c4cccc5cc(N)cc(c45)C3=O)CC1)C2=O,inactive: > 100 µM
20,Clc1ccccc1-c1nc2cc(C34CC5CC(CC(C5)C3)C4)ccc2[nH]1,inactive: 24.9 µM
21,CC/C(=C\c1ccc(Cl)c(Cl)c1)[N+](=O)[O-],inactive: 14.2 µM
22,O=C1C(Cl)=C(N2CCN(c3ccccn3)CC2)C(=O)c2c(O)ccc(O)c21,inactive: 2.64 µM
23,CNC(=O)N(CCCCC(NC(C)=O)C(=O)NCc1ccccc1)Cc1ccccc1 (stereo unspecified),inactive: > 100 µM

row,Structure (SMILES),GI50
1,Cn1c(N/N=C/c2ccc(Cl)cc2)nc(-c2ccc(Cl)cc2)c(C#N)c1=O,inactive: 20.2 µM
2,O=C(CC(O)(C(F)(F)F)C(F)(F)F)c1cc(CC(=O)C(O)(C(F)(F)F)C(F)(F)F)cc(CC(=O)C(O)(C(F)(F)F)C(F)(F)F)c1,inactive: 2.59 µM
3,CC1=C(/C(C)=N/NC(=O)C(N)=O)Sc2ccccc2N1,inactive: > 100 µM
4,O=C1Nc2cc(Cl)ccc2C(=O)N2CCC[C@@H]12,inactive: > 100 µM
5,C=C1C(=O)O[C@@H]2/C=C(/C)[C@@H](OC(C)=O)C/C=C(\C)C(O)[C@@H](OC(=O)/C(C)=C\C)C12 (stereo partly specified),inactive: 54.2 µM
6,Clc1sc(Cl)c2c1[C@H](Br)C[C@@H]2Cl,inactive: > 100 µM
7,CCOC(=O)CC(=O)C(=O)NN=C1NCCCN1,inactive: > 100 µM
8,CC1=CC[C@@]2(C)[C@@H]([C@@H]1C)[C@H]1CC[C@@H]3[C@@]4(C)CC[C@H](O)C(C)(C)[C@@H]4CC[C@@]3(C)[C@]1(C)C[C@@H]2O,inactive: 5.2 µM
9,COCOC1/C=C/CCCCC2=C(C)C=C(C1)O2 (stereo unspecified),inactive: > 100 µM
10,Cc1nc2ccccc2nc1CC(=O)C(=O)Nc1ccc(Cl)cc1Cl,inactive: > 100 µM
11,COc1ccc2c(c1)CC[C@@H]1C2CC[C@]2(C)C(=O)N(C)C(=O)CC12 (stereo partly specified),inactive: > 100 µM
12,COC(=O)/C=C/c1cc(OC)c2c(c1)C(C(=O)OC)C(c1ccc(OC)c(OC)c1)O2 (stereo unspecified),inactive: 55.5 µM
13,COC(=O)c1ccc2n[se]nc2c1,inactive: > 100 µM
14,COC(=O)c1ccc(/C=C/S(=O)(=O)c2ccccc2)cc1,inactive: > 100 µM
15,COc1cccc2cc(C)c(C(=O)c3ccccc3)nc12,inactive: > 100 µM
16,Cc1cc(S(=O)(=O)Nc2nc(Nc3ccc(Cl)cc3)n[nH]2)c(S)cc1Cl,inactive: > 100 µM
17,COc1ccccc1OCc1nnc(SCC(=O)O)n1-c1ccccc1,inactive: > 100 µM
18,Cc1nnc2sc(Cl)nn12,active: 0.434 µM
19,CC1=NN(C(=O)CC(=O)Nc2ccccc2F)C(=O)C1/N=N/c1ccccc1[N+](=O)[O-] (stereo unspecified),inactive: > 100 µM
20,CCn1c2ccc(O)c(C(=O)OC)c2c2cc3ccccc3c(O)c21,inactive: 15.5 µM
21,Cn1cc(-c2n[nH]c(-c3ccc(Cl)cc3)nc2=O)c2ccccc21,inactive: 2.12 µM
22,N#CCCC1(CCC#N)CCc2ccccc2C1=O,inactive: > 100 µM
23,CC(=O)NC(C=O)C(O[C@H](C)C(=O)NC(C)C(=O)NC(CCC(N)=O)C(=O)OCc1ccccc1)C(O)C(O)COC(=O)CCNc1c2ccccc2nc2cccc([N+](=O)[O-])c12 (stereo partly specified),inactive: 3.03 µM

row,Structure (SMILES),GI50
1,COc1cc2cc3c4cc(OC)c(OC)cc4cc[n+]3c(C)c2cc1OC.O=C([O-])CS(=O)(=O)O,inactive: 37.3 µM
2,CCNC(CCCC(NCC)P(=O)(O)O)P(=O)(O)O (stereo unspecified),inactive: > 100 µM
3,C/C(CC(O)(C(F)(F)F)C(F)(F)F)=N\O,inactive: > 10 µM
4,Cc1c2oc(=O)c(C#N)cc2c2ccccn12,inactive: > 100 µM
5,CC1CC(C(=O)OC2OC(COC3OC(CO)C(OC4OC(C)C(O)C(O)C4O)C(O)C3O)C(O)C(O)C2O)C2CCC3(C)C(=CCC4(C)C3CCC3C(C)(CO)C(O)C(O)CC34C)C2C1C (stereo unspecified),inactive: 31.2 µM
6,O=c1c2cc(I)ccc2nc(-c2cccs2)n1-c1ccc(O)cc1,inactive: 10.5 µM
7,COc1ccc(C(=C2C(=O)OC(=O)C2=C(C)C)c2ccc(OC)cc2)cc1,inactive: > 100 µM
8,CSC(SC)=C1C(=O)N(c2ccccc2)N=C1C,inactive: 26.7 µM
9,C/C(=N\n1c(Cc2ccccc2)n[nH]c1=O)c1ccc([N+](=O)[O-])cc1,inactive: > 100 µM
10,O=c1[nH]nc2c3n[nH]c(=O)n3c3ccccc3n12,inactive: > 100 µM
11,O=[N+]([O-])c1ccc(/C=C(/c2ccc([N+](=O)[O-])o2)S(=O)(=O)c2ccccc2)cc1,inactive: > 100 µM
12,Cc1ccccc1/N=N/c1c(-c2ccccc2)nn(C(=O)CC(=O)Nc2cccc(Cl)c2)c1-c1ccccc1,inactive: 27.7 µM
13,CSC1(C)CC2C(CC1N1CCOCC1)C2(C)C (stereo unspecified),inactive: > 100 µM
14,CCOC(=O)c1cc(-c2cc(OC)c(OC)c([N+](=O)[O-])c2)c([N+](=O)[O-])n1C,inactive: > 10 µM
15,O=C1c2cc(CCl)sc2C(=O)c2ccsc21,inactive: 1.24 µM
16,Cc1nn2c(=O)c([N+](=O)[O-])c(/C=C/c3ccco3)nc2s1,inactive: 55.5 µM
17,COC(=O)CCC(NC(=S)N/N=C(\C)c1cnc2ccccc2n1)C(=O)OC (stereo unspecified),inactive: 28.4 µM
18,CC(=O)c1c(C)cn(S(=O)(=O)NC(=O)Nc2nncs2)c1C,inactive: > 100 µM
19,Cc1ccc(S(=O)(=O)N(/N=C/C=C/c2ccccc2)c2nnc(-c3ccccc3)c(-c3ccccc3)n2)cc1,inactive: 11.8 µM
20,COC(=O)C1=C(O)C(C(=O)OC)[C@@]2(O)[C@@H](C(=O)OC)[C@H](C)C[C@@H]1[C@@H]2C(=O)OC (stereo partly specified),inactive: 28.2 µM
21,C/N=c1\sc2c(n1C)C(=O)c1ccccc1C2=O,inactive: 2.1 µM
22,OC1CCCN(C2(c3cccs3)CCCCC2)C1 (stereo unspecified),inactive: > 100 µM
23,CCCCCCCCCc1cc(=O)c2ccc(OCc3ccccc3)cc2o1,inactive: > 100 µM

row,Structure (SMILES),GI50
1,COc1ccc(C2=NOP(c3ccccc3)(c3ccccc3)(c3ccccc3)C2)cc1,inactive: 22.8 µM
2,O=[N+]([O-])c1c(/C=N/c2ccccc2)oc(-c2ccc3c(c2)OCO3)c1-c1ccc2c(c1)OCO2,inactive: > 100 µM
3,COC(OC)[C@@H]1OC[C@H](n2ccc(=O)[nH]c2=O)[C@H]1O,inactive: > 100 µM
4,CC(=O)OCC1OC(N2C(=O)C(=O)c3ccccc32)C(OC(C)=O)C(OC(C)=O)C1OC(C)=O (stereo unspecified),inactive: > 100 µM
5,CCOC(=O)c1cc(/C=C/C(C)=C/C(=O)OC)oc1-c1ccccc1,inactive: > 100 µM
6,O=c1oc2ccccc2[n+]([O-])c1-c1ccccc1,inactive: > 100 µM
7,Cc1sc(C)c2c1C(=O)CC2N (stereo unspecified),inactive: 70.8 µM
8,FC(F)(F)c1cccc(COCCN2CCN(Cc3cccc(C(F)(F)F)c3)CC2)c1,inactive: 18.5 µM
9,O=c1c2cc(I)ccc2nc(SCc2n[nH]c(=S)o2)n1Cc1ccccc1,inactive: 20.1 µM
10,COC(=O)/C(=N\O)C(C(=O)C=C(C)C)C(=O)C(=O)Nc1ccccc1C (stereo unspecified),inactive: > 100 µM
11,Cc1ccc(NC(=O)C(=O)C(C2C(C)CC(=O)C2CC(=O)O)[N+](=O)[O-])cc1 (stereo unspecified),inactive: > 100 µM
12,O=S(=O)(O)c1ccc(/N=N/c2ccc(/N=N/c3c(O)ccc4cc(S(=O)(=O)O)ccc34)cc2)cc1,inactive: > 100 µM
13,O=C(O)Cn1ccc(=O)c2c([N+](=O)[O-])cccc21,inactive: > 100 µM
14,O=S(O)CCCSSSCCCS(=O)O,inactive: > 100 µM
15,COc1ccc(-n2nnc(C(N)=O)c2O)cc1,inactive: > 100 µM
16,N#C[BH2-][n+]1ccc(C(=O)NNC(c2ccccc2)C(F)(F)F)cc1 (stereo unspecified),inactive: > 100 µM
17,CC[C@H](C)[C@H]1NC(=O)[C@@H](NC(=O)[C@@H](CC(C)C)N(C)CC2CCCN2C(=O)C(C)=O)[C@@H](C)OC(=O)[C@H](Cc2ccc(OC)cc2)N(C)C(=O)C2CCCN2C(=O)[C@H](CC(C)C)NC(=O)[C@@H](C)C(=O)[C@H](C(C)C)OC(=O)C[C@@H]1O (stereo partly specified),active: 0.00405 µM
18,COC(=O)CCC(=O)CC1CC(=O)C2CCCN12 (stereo unspecified),inactive: > 100 µM
19,Cc1cn(C2CC(SCCO)C(CO)O2)c(=O)[nH]c1=O (stereo unspecified),inactive: > 100 µM
20,COC(=O)CSc1cc(Cl)c(C)cc1S(=O)(=O)Nc1n[nH]c(N)n1,inactive: > 10 µM
21,CC(C)=CCCC1(C)C=Cc2c(c(C)cc3c2[nH]c2cc(O)ccc23)O1 (stereo unspecified),inactive: > 25 µM
22,CN(C)Cc1cc(C(=O)/C=C/c2ccc(Br)cc2)cc(CN(C)C)c1O,inactive: 11 µM
